Experiment [1] deals with T1, FRQ D862A, D866A, D867A, D869A, D870A, V5H6-tagged (Neurospora crassa) (UniProt P19970).
T1 sequence: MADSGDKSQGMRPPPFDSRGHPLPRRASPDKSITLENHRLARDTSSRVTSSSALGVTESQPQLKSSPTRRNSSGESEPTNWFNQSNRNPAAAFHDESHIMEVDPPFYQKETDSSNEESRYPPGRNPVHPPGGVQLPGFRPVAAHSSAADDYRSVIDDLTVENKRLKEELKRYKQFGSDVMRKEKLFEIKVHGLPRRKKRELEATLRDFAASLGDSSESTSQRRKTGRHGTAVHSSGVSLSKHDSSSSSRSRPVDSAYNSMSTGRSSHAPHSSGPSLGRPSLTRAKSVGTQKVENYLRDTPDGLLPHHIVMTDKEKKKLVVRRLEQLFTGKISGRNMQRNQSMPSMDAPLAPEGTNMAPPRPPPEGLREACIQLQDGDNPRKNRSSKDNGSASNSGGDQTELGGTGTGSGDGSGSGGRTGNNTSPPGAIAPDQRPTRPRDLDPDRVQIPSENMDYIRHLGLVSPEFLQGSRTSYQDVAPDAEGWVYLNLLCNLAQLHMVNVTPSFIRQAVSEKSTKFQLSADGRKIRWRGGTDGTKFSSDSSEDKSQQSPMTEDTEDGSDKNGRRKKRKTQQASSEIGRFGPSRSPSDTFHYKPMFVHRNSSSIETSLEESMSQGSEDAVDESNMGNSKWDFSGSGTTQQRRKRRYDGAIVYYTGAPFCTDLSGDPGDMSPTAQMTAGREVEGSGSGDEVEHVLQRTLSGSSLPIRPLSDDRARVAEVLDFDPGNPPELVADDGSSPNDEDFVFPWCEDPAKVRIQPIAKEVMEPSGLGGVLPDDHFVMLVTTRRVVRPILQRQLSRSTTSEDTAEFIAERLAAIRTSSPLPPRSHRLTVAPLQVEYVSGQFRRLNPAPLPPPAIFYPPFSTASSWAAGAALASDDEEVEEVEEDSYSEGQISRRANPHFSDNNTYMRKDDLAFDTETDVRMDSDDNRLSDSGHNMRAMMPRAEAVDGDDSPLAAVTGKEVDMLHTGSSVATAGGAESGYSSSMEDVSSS
In words: co-IP; V5H6-tagged FRQ (wild type or mutant) pulled down with V5 agarose from Neurospora lysate (cultures in the light, 25 °C); 50 mM Hepes pH 7.4, 137 mM NaCl, 10% glycerol, 0.4% NP-40; 4 °C, 2 h; Western blot with FRQ, FRH, WC-1 and WC-2 antibodies. For orientation: In western blotting, separated proteins are transferred to a membrane and probed.

Experiment [2] addresses T2, FRQ D874A, D875A, E876A, E877A, E879A, E880A, E882A, E883A, D884A, V5H6-tagged (Neurospora crassa) (UniProt P19970).
T2 sequence: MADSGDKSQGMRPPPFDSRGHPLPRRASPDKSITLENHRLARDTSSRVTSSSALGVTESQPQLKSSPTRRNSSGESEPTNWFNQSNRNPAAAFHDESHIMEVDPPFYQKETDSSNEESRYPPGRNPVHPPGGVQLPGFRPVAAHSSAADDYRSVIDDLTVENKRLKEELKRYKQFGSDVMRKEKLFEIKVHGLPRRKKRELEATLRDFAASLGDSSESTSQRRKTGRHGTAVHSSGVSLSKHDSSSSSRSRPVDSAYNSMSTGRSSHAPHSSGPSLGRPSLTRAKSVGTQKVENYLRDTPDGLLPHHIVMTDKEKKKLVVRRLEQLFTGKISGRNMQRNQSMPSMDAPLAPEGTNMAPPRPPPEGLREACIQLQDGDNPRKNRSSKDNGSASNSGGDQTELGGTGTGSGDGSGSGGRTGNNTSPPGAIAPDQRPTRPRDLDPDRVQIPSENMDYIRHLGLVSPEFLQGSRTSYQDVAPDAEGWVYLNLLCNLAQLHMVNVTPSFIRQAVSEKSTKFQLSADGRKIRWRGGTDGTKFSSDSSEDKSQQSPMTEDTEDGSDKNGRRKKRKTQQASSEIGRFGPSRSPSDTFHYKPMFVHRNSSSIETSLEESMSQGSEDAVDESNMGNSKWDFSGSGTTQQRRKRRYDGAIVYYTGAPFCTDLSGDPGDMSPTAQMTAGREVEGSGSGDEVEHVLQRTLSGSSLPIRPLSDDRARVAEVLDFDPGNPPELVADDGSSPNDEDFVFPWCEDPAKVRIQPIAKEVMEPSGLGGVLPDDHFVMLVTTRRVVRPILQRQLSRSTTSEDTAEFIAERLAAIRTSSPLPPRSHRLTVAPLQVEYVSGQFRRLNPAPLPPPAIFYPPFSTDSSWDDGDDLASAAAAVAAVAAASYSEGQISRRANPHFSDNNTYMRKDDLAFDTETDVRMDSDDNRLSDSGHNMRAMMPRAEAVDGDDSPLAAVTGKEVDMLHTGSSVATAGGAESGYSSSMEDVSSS
Described as above.

No constants are given. Whether binding was seen depends on the method and setting. Binding seen in cells or lysates may run through a third protein. Some entries that bind do so weakly or less than the wild type. Sequences can lack the tags named with a protein.

B1: FRQ-interacting RNA helicase (FRH) (protein, UniProt Q1K502 1-1106)
chain: MDDLFEVFEEQPRAQKKRKASPDVEMADGAAAAAPVANAAAAVTHPQAQAAPAPQKDNIDNNDNNNNNTTTSAVQPTIPNGDAAAAADDVQSPQSPHGLGDNKRRKKTDEAEPIMTDAFQTAESREVTGAQGFAPTEGESIVLSHNIQHQVALPPDLDYEYIPLSEHKPPAEPARTYSFKLDPFQALSVASIEREESVLVSAHTSAGKTVVAEYAIAQCLKKNQRVIYTSPIKALSNQKYRDFQAEFGDVGLMTGDVTINPTASCLVMTTEILRSMLYRGSEIMREVAWVVFDEIHYMRDKIRGVVWEETIILLPDKVRYVFLSATIPNAFQFAEWIAKIHRQACHVVYTDFRPTPLQNYFFPAGGKGILLIVDEKGNFKENNFNQAMAMIEEKKGTDSNDWSAKQKGKGKNKKTNKGGEAADEKADIAKIIKMILKKNFQPVIVFNFSKRECEQMALASSSMKFNAPDEENMVNKVFENALASLSEDDKNLPQISNILPLLRKGIGVHHSGLLPILKETIEILFQEGLIKVLFATETFSIGLNMPARTVVFTQVTKWDGQQRRPLTSSEYIQMAGRAGRRGLDDRGIVIMMVDDKLEPETARAIVVGNQDKLNSAFHLGYNMVLNLLRIEAISPEYMLERCFFQFQNAASVPQLERELISLQQERDAIIIPDESIVKDYYGVRQQLEEYNKDMVFVIQHPQNCLGFFQEGRLIHIKSPSGVDYGWGVLIKHIQRQTPKNGQPPYPEQESYVLDVLLKVSGDFNPKTRGEGPMPEGIMPAGKDSKNARWEVVPCLLNCLRALGQLRVFLPKRLESADEKDGVGKAVDEISRRFPDGIPILDPMENMGINDDSFKKLLRKIEVLESRLVANPLHNSPLLVELWNQYSLKMQLGEQIKEKKKAIARAHSVAQLDELKSRKRVLRRLGFINDAEVVQMKARVACEISSTEGHELLLAELLFNRFFNELSPEICACILSCFIFDEKIETQALKEELAKPFREIQAQARIIAKVSAESKLDVNEDEYVQSLKWQLMETVLAWAQGRPFSEICKMTNVYEGSLIRLFRRLEELLRQMAEAARVMGSEELKDKFELSLSKIRRDIVSFNSLYL
For B1, the binding entry in experiment [1] and in experiment [2] was “binds” in each case.

B2: White Collar-2 (WC-2) (protein, UniProt P78714 1-530)
chain: MSHGQPPPGSSMYGFGAMGMGSGMGSGMGSGMGTGMGTGMGTGMSASQMTSDPQDMMSLLDTSVFPGFDGMSMSLDVGDSMSNPFTPVSVPPPLPAGNAGPSHVGVCGGHGAPDQLFSPDDLIATSMSSAGPMIATPTTTTSGPSGGPSSGGGSTLTEFTKRRNWPAKVVEELQDWEHILDANGRIKHVSPSVEPLTGYKPPEIIDLFLRDLIHPDDVGVFTAELNEAIATGSQLRLFYRFRKKDGNWTIFETVGHAHIAAAKFAPNPQNQSPFCQAVFMMARPYPTKNAGLLDSFLEHKIENERLKRRIAELRREEQEEQEESHRTWRMSQEGRSDVTPSDDTATQMGMTPFYIPMNAQADVMMPPPSQPASSLNIALTRENLEGIAGSRPDSIREKMLRYEGNHADTIEMLTGLKYQEGERSHGITTGNASPTLIKGDAGIAIPLDRDPRTGEKKKKIKVAEEYVCTDCGTLDSPEWRKGPSGPKTLCNACGLRWAKKEKKKNANNNNNGGGIGGHNDIHTPMGDHMG
For B2, the binding entry in experiment [1] and in experiment [2] was “binds weakly” in each case.

For the origin of these results see paper PMC10320511.
